Measured values reported in ChEMBL document CHEMBL4888484, “Replenishing the malaria drug discovery pipeline: Screening and hit evaluation of the MMV Hit Generation Library 1 (HGL1) against asexual blood stage Plasmodium falciparum ,using a nano luciferase reporter read-out” (2022).
The campaign covered roughly 150,000 compounds. About 540 (0.36%) showed an effect of 50% or more. Some of the results follow.

system: Plasmodium falciparum; assay: Primary screen in NF54 nanoGlo assay, in single point, at 2uM, 72h; a lower Z score goes with more inhibition; type: functional, Erythrocyte; conditions: timepoint 72 hour

| SMILES | % Inhibition [%] | Z score |
| --- | --- | --- |
| CCOc1ccc(CN=C(N(C)C)N(C)C)cc1F | 7 | -1.36 |
| O=C(Nc1ccc(Cl)cc1)[C@H]1CCCC[C@H]1C(=O)NCCCn1ccnn1 | 5 | -0.92 |
| CC[C@@H](C(=O)Nc1cc(C)cc(C)c1)N1C(=O)CCn2nc(C)cc21 | -2 | 0.22 |
| COc1cc(CN(C)c2ncccn2)sn1 | -13 | 1.36 |
| O=C(c1nccc2ccsc12)N1CCC[C@H](c2nc3ccc(F)cc3o2)C1 | -21 | 1.83 |
| COc1cccc(C(=O)N2CCN(c3ccc(NC(=O)C4CCCC4)cn3)CC2)c1 | 0 | -0.08 |
| COc1ccc(Cc2noc(C3CCOC(C)C3)n2)c(Cl)c1OC (stereo unspecified) | 3 | -0.34 |
| CCOc1cc(CN=C(N)Nc2cccc(C)c2)ccn1 | -3 | 0.56 |
| C=CCCC(=O)NC[C@](C)(O)c1ccco1 | -12 | 2.08 |
| COc1ccc(OCc2nc(C)cc(=O)n2CC(=O)NCc2ccc3c(c2)OCO3)cc1 | -14 | 2.04 |
| COC(=O)[C@H](CCOc1ccc(OC)cc1)NC(=O)OC(C)(C)C | -9 | 1.79 |
| C[C@@H](C(=O)NC1CCCC1)S(=O)(=O)Cc1cc(Cl)c2c(c1)OCCCO2 | -10 | 0.92 |
| Cn1c(CN2CC[C@H](O)C2(C)C)nc2ccc(Cl)cc21 | 0 | -0.06 |
| CN1CCCc2cc(C(=O)NC3CCCCCC3)sc21 | 2 | -0.37 |
| Cc1cc(C(=O)N[C@H]2CCO[C@@H]2c2nccn2-c2ccccc2)[nH]n1 | 6 | -0.81 |
| COc1ccc(CCNc2ccc(-c3nc(-c4cccc(Cl)c4)no3)nn2)cc1OC | 18 | -2.05 |
| CN(C)c1ccc(NC(=O)C2CCCC2)cn1 | -9 | 1.67 |
| CN(Cc1cocn1)Cc1cnn2c1CN(C(=O)OC(C)(C)C)CC2 | -11 | 2.32 |
| CCC[C@H]1CN(C(=O)NCc2ccc(F)cc2)C[C@@H]1C(=O)O | -8 | 1.45 |
| Cc1cc(NC(=O)CCOCC(F)F)cc(C)c1O | -6 | 0.87 |
| Cc1cnc(C(=O)N2CCC[C@H]2c2nc(CCOCc3ccccc3)no2)cn1 | -9 | 1.2 |

| SMILES | % Inhibition [%] | Z score |
| --- | --- | --- |
| CCC(CC)(CO)CN(C)C(=O)[C@H](C)n1ccnc1C | -14 | 1.75 |
| O=C(NC1CCN(S(=O)(=O)[C@H]2CCOC2)CC1)c1ccsc1 | -6 | 0.65 |
| CC(C)(C)OC(=O)N1CC2(C1)OCCCN2C(=O)[C@@H]1CCCCO1 | -18 | 2.42 |
| Cc1ccc(-n2ncc3c(N)c4c(nc32)C[C@H](c2ccccc2)CC4=O)cc1C | -15 | 1.96 |
| Cc1nnsc1C(=O)N1CCc2nc(NC(=O)c3cnccn3)sc2C1 | -3 | 0.41 |
| CC(C)CN([C@H]1CCCc2cccnc21)S(=O)(=O)N(C)C | -3 | 0.52 |
| COc1cccc(CC(C)NC(=O)N2CCC(C)C2CO)c1 (stereo unspecified) | -14 | 1.73 |
| CCOC(=O)CN(CC(C)C)C(=O)Cc1csc(CC)n1 | -1 | 0.07 |
| Cc1ccc(S(=O)(=O)NCCN(CCNS(=O)(=O)c2ccc(C)cc2)Cc2ccccc2)cc1 | -3 | 0.44 |
| CC[C@H](NCc1cccc(C(=O)O)n1)c1ccncc1 | -5 | 1.05 |
| CCN(Cc1nc2cc(Cl)ccc2c(=O)[nH]1)Cc1cccc2cccnc12 | 20 | -2.28 |
| Nc1nsc(N2CCN(CC(=O)N3CCN(c4ccccc4F)CC3)CC2)n1 | -11 | 1.5 |
| Cc1ccc(-n2nccc2NC(=O)C(=O)N[C@H](c2ccccn2)C(C)C)nn1 | 3 | -0.32 |
| Clc1cccc(OCc2cccc(-c3nc4ccccc4s3)c2)c1Cl | -3 | 0.31 |
| COC(=O)C[C@H](C)NC(=O)c1cc(C)n(CC2CC2)c1C | -10 | 0.84 |
| C=CCOc1ccc(C(=O)[C@@H]2[C@@H]3CCCN3[C@]3(C(=O)Nc4ccccc43)[C@@]23C(=O)Nc2ccccc23)cc1 | -2 | 0.39 |
| COc1cccc(C2CN(C(=O)C3CCCC3)CC2C(=O)NCCC(C)C)c1 (stereo unspecified) | -8 | 0.79 |
| Cc1cc(C)c2c(c1)N(Cn1nc(C(C)(C)C)ccc1=O)CCC2 | -4 | 0.62 |
| O=C(CCOCC(F)(F)C(F)(F)F)NCCNC(=O)c1c(F)cccc1F | -8 | 0.69 |
| CCn1cc(C(=O)N(C)C2CCCC2c2ccccc2)cn1 (stereo unspecified) | -8 | 0.93 |
| COc1ccc(C(=O)NC(C)(C)C)cc1OC | -11 | 1.38 |

| SMILES | % Inhibition [%] | Z score |
| --- | --- | --- |
| NC(=O)C1CCN(C(=O)c2[nH]nc(C3CC3)c2Br)CC1 | -8 | 0.98 |
| COc1cc2ccccc2cc1C(=O)Nc1sc2c(c1C(N)=O)CCCC2 | 3 | -0.42 |
| CC[C@H]1C(=O)NCCCN1Cc1cnc(OC)c(Cl)c1 | -8 | 1.11 |
| CN(Cc1noc(C2CCCC2)n1)C(=O)c1cnn2ccn(C)c12 | -8 | 1.15 |
| Cc1nc(C)c(C(=O)N2CCO[C@@H](c3ccc(Cl)cc3)C2)o1 | -14 | 1.82 |
| Cc1ccc(C(=O)N(Cc2cocn2)Cc2cocn2)n1C(F)F | -1 | 0.11 |
| O=C(CCN1C(=O)c2ccccc2C1=O)N1CCCCCC1 | 8 | -1.11 |
| COCCCN1C(=O)c2ccc(C(=O)N3CCN([C@@H](C)c4nc5ccccc5s4)CC3)cc2C1=O | 7 | -0.95 |
| O=C(OCc1ccccc1)c1cccc(NCc2nnc(C3CC3)o2)c1 | 0 | 0.03 |
| Cc1c(Cl)cc(C(=O)N2C[C@@H]3[C@@H](CN(C)C)[C@@H]3C2)cc1Cl | -7 | 1.35 |
| CCC[C@]1(CO)CCN(Cc2cc3c(C)cc(C)cc3[nH]2)C1 | -1 | 0.17 |
| O=C(Nc1nc(CCc2c[nH]c3ccccc23)n[nH]1)C1CCCCC1 | 0 | 0.02 |
| Cc1c(CN2CCC(Cc3ccc(CN4CCCC4)cc3)CC2)cnn1C | -10 | 1.91 |
| O=S(=O)(c1c(F)cc(F)cc1Br)N1CCc2ccccc21 | 29 | -3.96 |
| Cc1ccc(-c2nc(CNS(=O)(=O)c3ccc(F)cc3)no2)o1 | 8 | -0.77 |
| CC1(C)C(NC(=O)N2CCOCC2)C2CCCOC21 (stereo unspecified) | -12 | 1.83 |
| Cc1noc(-c2nc(Cc3ccccc3)no2)n1 | -10 | 1.23 |
| CCc1ccc(NC(=O)N2CCCCC[C@H]2c2ccc(C)s2)cc1 | 6 | -1.16 |
| O=C1C2N=NN(c3ccccc3Cl)C2C(=O)N1c1ccc2c(c1)CCC2 (stereo unspecified) | -8 | 0.88 |
| CN(C(=O)C1CCN(C2CCN(CCCc3ccccc3)CC2)CC1)[C@H]1CCOC1 | -3 | 0.31 |
| O=C(NCCOc1cc(N2CCOCC2)ncn1)C1CCCC1 | 8 | -1.07 |

| SMILES | % Inhibition [%] | Z score |
| --- | --- | --- |
| COc1ccc(-c2n[nH]c(C3CCCCC3)n2)cn1 | -20 | 1.84 |
| CCCn1cc(CCNS(=O)(=O)Cc2cc(C)ccc2C)c2cccnc21 | -9 | 0.99 |
| O=C(Nc1ccc(-c2cc(NC(=O)c3ccccc3)n(-c3ccc(Oc4ccccc4)c(S(=O)(=O)O)c3)n2)cc1)c1ccccc1 | -12 | 2.39 |
| O=C(NCc1nccs1)c1nn(Cc2ccccc2)c2c1CN(Cc1cccc3nccnc13)CC2 | -14 | 1.59 |
| O=C(Nc1ccccc1C(F)(F)F)N1CCc2c([nH]c3ccc(Cl)cc23)[C@H]1c1ccc(F)cc1 | -10 | 1.44 |
| Cc1nc(C)c(C)c(NCc2cc(CC(C)C)on2)n1 | 2 | -0.18 |
| CC(C)N(Cc1cnn(C)c1)C(=O)c1csc(-c2ccco2)n1 | -24 | 2.16 |
| CCCC(=O)NS(=O)(=O)c1c(C)nn(C)c1C | -45 | 5.3 |
| CC(C)(C)NC(=O)CN1CCC(CNc2ccc(C#N)nc2)CC1 | -12 | 1.21 |
| Cc1cnn([C@H]2CCN(S(=O)(=O)c3cc(Cl)sc3Cl)C2)c1 | 0 | 0.01 |
| COCc1nsc(N2CCC(c3c(F)cccc3F)CC2)n1 | 30 | -4.27 |
| COc1ccc(C(=O)N2CCC3(CC2)C[C@@H](c2nc(C)no2)N(C)C3)c(OC)c1 | -11 | 1.39 |
| CCN1CCN(c2c(CN(CC(C)C)C(=O)C3CCCCC3)c(C)nn2-c2cccc(F)c2)CC1 | -11 | 1.56 |
| C=C(C)CN(C)C(=O)c1cc(O)nc(C(C)C)c1 | 2 | -0.25 |
| CCOc1cc2c(cc1OCC)[C@H](c1ccc3ccccc3c1)NCC2 | 12 | -1.57 |
| CCc1c(C)noc1NC(=O)CCc1ccnn1C | -2 | 0.35 |
| NC(=O)[C@@H]1C[C@@H](O)CN1C(=O)CCc1ccc(F)cc1 | -11 | 1.87 |
| COC1CCCC(CC(=O)NCc2nnc(C3CC3)o2)C1 (stereo unspecified) | 4 | -0.73 |
| Cc1cc(NC(=O)CNC2C(C)CCN(C(=O)OC(C)(C)C)C2C)n(C(C)(C)C)n1 (stereo unspecified) | 33 | -4.84 |
| Cc1cccc(CN(Cc2ccc3cn[nH]c3c2)Cc2ccccn2)c1 | -28 | 3.28 |
